# Assay results taken from PubChem BioAssay AID1458 (National Center for Advancing Translational Sciences (NCATS), 2008).
# Hit rate of the full screen: of about 210,000 compounds, about 5,900 (2.8%) were called active. Inconclusive means that the source gave no clear call. Such entries were picked first, then a sample of the others. Calls come from the whole dose curve; as a rule, active = well fitted activation curve with a large enough effect; inconclusive = small, poorly fitted or top-dose-only effect; inactive = no such curve, though single readings can be large or run the other way. Potencies of inconclusive entries are doubtful fits and often do not repeat.
# Assay: qHTS Assay for Enhancers of SMN2 Splice Variant Expression; note: nearly all actives have a fitted effect of over 55% in size; for activity change, positive = activation: % of control where 0% means no effect
# Details: HEK293 SMN2-luciferase splicing reporter, luminescence, 30-36 h; activity change, positive = activation: at 46.1 µM (top of the series)
# Summary of the method: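 HEK293 cells carry an SMN2 minigene-luciferase reporter in which exon 7 inclusion puts luciferase in frame. Cells were seeded at 2000 cells/well, attached for 10-12 hours, then exposed to compounds for 30-36 hours at 37C before ONE-Glo luminescence.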
# Potency is the fitted concentration of half-maximal effect; tags give direction and shape of the fitted curve.
SMILES,"activity change, positive = activation",Potency
CCOc1nc(NCCO)nc(Nc2ccc([N+](=O)[O-])cc2)n1,inactive: 2.62%,–
CCC(=O)c1ccc(OCCN2CCOCC2)cc1,–,"inconclusive: 5.01 µM [activator, partial curve]"
Cc1nn(-c2cc(C)c3ccccc3n2)c2c1CCC2,–,"inconclusive: 11.2 µM [activator, partial curve, poor fit]"
COc1ccc(-c2nc(NC(=O)c3n[nH]c(=O)c4ccccc34)sc2C)cc1,–,"inconclusive: 25.1 µM [activator, single point]"
CC(=NCc1ccc2c(c1)OCO2)C1=C(O)c2ccccc2C1=O,–,"inconclusive: 2.24 µM [activator, full curve]"
S=c1[nH]nc([C@@H]2C[C@H]2c2ccccc2)n1-c1ccccc1,–,"inconclusive: 4.47 µM [activator, partial curve, poor fit]"
COC(=O)/C=C/c1ccc(OC(=O)OC)c(OC(=O)OC)c1,–,active: 14.1 µM
COc1ccccc1/C=N/NC(=O)c1[nH]c(C)c(C(=O)N/N=C/c2ccccc2OC)c1C,–,"inconclusive: 0.0028 µM [activator, full curve, poor fit]"
O=C(COc1ccc(Br)cc1Cl)NC(=S)N1CCc2ccccc21,–,"inconclusive: 3.55 µM [activator, partial curve, poor fit]"
CCCCc1c(O)n2c(nc3ccccc32)[nH]c1=O,–,"inconclusive: 0.0056 µM [activator, full curve, poor fit]"
CCOC(=O)C1CCCC(NS(=O)(=O)c2ccc(NC(C)=O)cc2)C1 (stereo unspecified),–,"inconclusive: 0.01 µM [activator, full curve, poor fit]"
O=C(CSc1cc([N+](=O)[O-])cc(S(=O)(=O)Cc2ccccc2)c1)NC1CC1,inactive: 2.02%,–
COc1cc(Cl)c(C)cc1NC(=O)Cn1c(C)c2cnn(-c3ccccc3)c(=O)c2c1C,inactive: 2.4%,–
CCS(=O)(=O)c1ncc(Cl)c(C(=O)NCc2ccccc2)n1,–,"inconclusive: 35.5 µM [activator, single point]"
NC(=S)N/N=C/c1cccc(O)c1O,–,"inconclusive: 14.1 µM [activator, partial curve, poor fit]"
Cc1cccc(C)c1NC(=O)Cn1nnnc1N,inactive: -8.36%,–
N#Cc1cc2c(nc1Cl)CCCC2,–,"inconclusive: 5.62 µM [activator, single point]"
CCOc1ccc2nc(SCC(=O)N3CCCCCC3)c(C#N)cc2c1,inactive: 21%,–
O=C(N/N=C/c1cn(-c2cccs2)nc1-c1ccccc1)c1ccc(O)cc1,–,"inconclusive: 35.5 µM [activator, single point]"
COc1ccccc1/C=C/C=N/NC(=O)Cc1cccn1C,–,"inconclusive: 0.794 µM [activator, full curve, poor fit]"
COc1cc(OC)c(NC(=O)N2CCc3cc(S(=O)(=O)N4CCC(C)CC4)ccc32)cc1Cl,inactive: -5.97%,–
NNc1nc2ccc(Cl)cc2s1,–,"inconclusive: 35.5 µM [activator, single point]"
S=C(N/N=C/c1ccc2ncccc2c1)Nc1ccccc1,–,"inconclusive: 35.5 µM [activator, single point]"

SMILES,"activity change, positive = activation",Potency
COc1cc(S(=O)(=O)Nc2cccc(C)c2)ccc1NC(=O)c1ccncc1,–,"inconclusive: 2.82 µM [activator, full curve, poor fit]"
CCOC(=O)N1CCN(c2nc(-c3ccc(F)cc3)cs2)CC1,–,"inconclusive: 2 µM [activator, partial curve, poor fit]"
COc1ccc(-n2ncc3c2ncn2nc(Cc4ccccc4)nc32)cc1,inactive: -10.4%,–
c1ccc(N2CCN(c3nc4cc5c(cc4s3)OCCO5)CC2)cc1,–,active: 10 µM
Cc1ccc(OCC(=O)c2cc(C)n(C)c2C)c([N+](=O)[O-])n1,–,"inconclusive: 5.62 µM [activator, single point]"
Cc1ccc(C)c(N2C(=O)c3ccc(C(=O)OCC(=O)c4c(N)n(C)c(=O)n(C)c4=O)cc3C2=O)c1,–,"inconclusive: 0.282 µM [activator, full curve]"
COc1ccc(C(=O)n2nnc3ccccc32)cc1Br,–,"inconclusive: 3.16 µM [activator, partial curve]"
c1ccc(SCc2cc(-c3ccccc3)no2)cc1,inactive: 247%,–
CC(=O)c1cccc(S(=O)(=O)NC2CCCCCC2)c1,inactive: 0.937% [at 1.84 µM],–
COc1ccc(CNc2nc3c(c(C(F)(F)F)n2)CCCCC3)cc1,–,"inconclusive: 0.0501 µM [activator, full curve, poor fit]"
CCOC(=O)c1sc2nc(C)nc(SCC(=O)N(CC)C3CCS(=O)(=O)C3)c2c1C (stereo unspecified),inactive: -59.8%,–
O=S(=O)(c1ccc(Cl)cc1)N1CCC2(CC1)CO2,–,"inconclusive: 5.62 µM [activator, single point]"
Cc1ccc(-c2cc(-c3ccccc3[N+](=O)[O-])[nH]n2)c(O)c1,–,active: 17.8 µM
COc1cc(CNCCSc2nnnn2C)ccc1OCc1ccc(Cl)cc1Cl,inactive: -16%,–
Nc1nc(SCc2c(Cl)cccc2Cl)n[nH]1,–,"inconclusive: 11.2 µM [activator, partial curve]"
O=C(C1CCCN1S(=O)(=O)c1cccc2cccnc12)N1CCN(c2ccccc2)CC1 (stereo unspecified),inactive: -13.1%,–
O=c1cc(Cl)[nH]c(=O)n1CCNc1ncc(C(F)(F)F)cc1Cl,–,"inconclusive: 20 µM [activator, single point]"
O=[N+]([O-])c1ccc(N/N=C/c2ccccc2)c(F)c1,–,active: 22.4 µM
COc1ccccc1N1C(=O)CCC1(C#N)c1ccccc1 (stereo unspecified),–,"inconclusive: 5.62 µM [activator, single point]"
Oc1cccc(/C=N\Nc2nncc(-c3ccccc3)n2)c1,–,"inconclusive: 31.6 µM [activator, single point]"
CN1C(=O)/C(=C/c2cc3c(cc2Br)OCO3)NC1=S,inactive: -18.2%,–
Cc1nc(NC(=O)C2CCCC2)sc1Cc1ccc2c(c1)OCO2,–,"inconclusive: 28.2 µM [activator, single point]"
O=S1(=O)C=CC(Nc2ccccc2)C1 (stereo unspecified),–,"inconclusive: 10 µM [activator, partial curve]"
